Out of some 48,000 compounds screened, about 450 (0.94%) were called active. About 19% were inconclusive and are not listed. The call rests on the fitted dose curve; in most records, active means well fitted inhibition curve with a large enough effect; inconclusive means small, poorly fitted or top-dose-only effect; inactive means no such curve, though single readings can be large or run the other way. The list shows a part of the results.

The nature of the experiment: Primary qHTS for Identification of Small Molecule Inhibitors of Huntingtin Promoter Activity. Further: nearly all actives have a fitted effect of over 50% in size. The note with it: HEK293 HTT promoter firefly luciferase reporter (activity 0% = vehicle and -100% = no light), 24 h; series mostly up to 57.5 µM; activity change, negative = inhibition: at the top concentration. In short, it runs like this:
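Firefly luciferase readout (Dual-Glo, 10 min RT) after 24 h, 37 °C compound exposure (final up to 57.5 uM) of HEK293 reporter cells cultured 24 h beforehand; PTC124 at 50 uM final as control inhibitor; activity scaled vehicle 0%, zero RLU -100%.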
A general note: Quantitative high-throughput screening tests each substance at several concentrations.
Turning to `Cc1ccc(NC(=O)CSc2[nH]c(=O)ncc2C)cc1`, the “activity change, negative = inhibition” value was inactive: 62.2%. As to `Clc1ccc(CSc2nc3ncccc3[nH]2)cc1`, the “activity change, negative = inhibition” value is inactive: 59.2%. Next, `Cc1ccc(NC(=O)Cc2ccc(NC(=O)N3CCCCc4ccccc43)cc2)cc1`: inactive: -28.6%; `Cc1cc(Cl)ccc1NC(=O)CN1C(=O)C(=O)c2ccccc21`: inactive: -10.5%; `CSc1cccc(NC(=O)Cn2nnc(C(=O)NCCc3ccccc3)c2N)c1`: inactive: -21.7%. Next, `CCN1CCN(C(c2ccccc2)c2c(O)cc(C)n(CCOC)c2=O)CC1` (stereo not given): inactive: 13%; `CCCCC(=O)Nc1ccc(C(=O)OCc2cc(=O)n3nc(C4CC4)sc3n2)cc1`: inactive: -18.7%. Next, `COC(=O)C1=C(c2ccccc2)c2ccccc2S(=O)(=O)N1CC(=O)Nc1ccccc1C(F)(F)F`: inactive: -13.5%; `COc1ccc(S(=O)(=O)Cc2ccc(C(=O)NC3CCCCC3)o2)cc1`: inactive: -34.8%. Regarding `Cc1cccc(N2CCN(c3ccc(C(=O)O)cc3NC(=O)c3ccccc3F)CC2C)c1` (stereo not given), the “activity change, negative = inhibition” value was inactive: -26.3%. For `C=CCN1CCc2nc(N)sc2CC1` the value was inactive: 9.08%; for `Cn1c(=O)n(CCc2ccccc2)c(=O)c2c1nc1n2CCN1c1ccc(Cl)cc1`, inactive: -1.95%. With `CC(C(=O)Nc1ccccc1C(F)(F)F)n1nc(-c2ccccc2)c2c(c1=O)CCCC2` (stereo not given), the “activity change, negative = inhibition” value is inactive: -29.4%. Next, `Cc1cc(C)c2c(-n3cccc3)c(C(=O)NCCc3ccccc3)sc2n1`: inactive: 1.31%; `CC(C)CC(=O)Nc1c(C(=O)N2CCN(c3ccccc3F)CC2)oc2ccccc12`: inactive: -27.4%. For `CC(=O)c1ccc(N2CCN(C(=O)Nc3cccc(F)c3)CC2)cc1` the value was inactive: -12.9%; for `CC(C)Oc1ccc(CNC(=O)CCCn2c(=O)c3cccn3c3cccnc32)cc1`, inactive: -15.4%; for `O=C(c1ccccc1)C(O)c1ccccc1` (stereo not given), inactive: -0.643%. As for `O=C(NCc1ccc2c(c1)CCN2C(=O)c1ccncc1)c1ccc(Cl)cc1`, the “activity change, negative = inhibition” value was inactive: -22%. Next, `Cc1ccc2c(=O)c(C(=O)c3ccccc3)cn(CC(=O)Nc3ccccc3)c2n1`: inactive: -12.1%. As for `Cc1c(Cl)cccc1NC(=O)CN1C(=O)CCn2nc(-c3cccn3C)cc21`, the “activity change, negative = inhibition” value is inactive: -3.81%. For the compound `COCCN(CCOC)C(=O)c1cc2c(=O)n3ccccc3nc2n1C`, the “activity change, negative = inhibition” value is inactive: -7.33%. Next, `CCOC(=O)C(Cc1c[nH]c2ccccc12)NC(=O)COc1ccc(Cl)cc1` (stereo not given): inactive: -17.4%; `CCn1c(NCc2cccc(Cl)c2)nc2ccccc21`: inactive: -12.7%.

For the compound `COc1cc(-c2nc3ccc(C)cn3c2Nc2ccc(Cl)cc2)ccc1O`, the “activity change, negative = inhibition” value was inactive: -6.73%. On to `COc1cccc(C(=O)NC2=NC(c3ccc(N(C)C)cc3)CC(=O)N2)c1` (stereo not given), for which the “activity change, negative = inhibition” value was inactive: -0.0305%. Take `O=C(NCCCN1CCCCC1)c1cc(Sc2ccc(Cl)cc2)nc2ccccc12`: the “activity change, negative = inhibition” value is inactive: -24.7%.

Regarding `Cc1ccc(Cn2c(C(=O)O)c(CNCCc3ccco3)c3ccc(C)cc32)cc1`, the “activity change, negative = inhibition” value is inactive: -13.3%. For `Cc1c[nH]c2ccccc12` the value was inactive: 2.05%; for `COc1ccc(-n2c(=O)c3ccc(C(=O)NCc4ccc(C)cc4)cc3n(CC(=O)Nc3ccc(C)cc3)c2=O)cc1`, inactive: -25.7%. Next, `O=S(=O)(c1ccc(Br)cc1)c1nnn2c1nc(NCc1cccs1)c1sccc12`: inactive: -6.45%; `CC(=O)c1ccc(N2CCN(C3C(=O)c4ccccc4N3C(C)=O)CC2)cc1` (stereo not given): inactive: -8.55%; `COc1ccc(-c2cc(C(=O)NCCc3ccccc3)c3cc(C(C)C)ccc3n2)cc1`: inactive: 13.4%.

As to `NC(=O)c1cccc2cn(-c3ccc([C@@H]4CCCNC4)cc3)nc12`, the “activity change, negative = inhibition” value was inactive: 11.6%. Take `CCOc1cc(-c2nc(-c3ccc(-c4ccc(OC)cc4)nc3OC)no2)cc(OCC)c1OCC`: the “activity change, negative = inhibition” value is inactive: 2.77%. On to `COCCCNC(=O)C1CCN(c2cc(C)nc3c(-c4ccc(OC)c(OC)c4)c(C)nn23)CC1`, for which the “activity change, negative = inhibition” value was inactive: -10.8%.

For `COc1ccc(Cl)cc1NC(=O)c1nn(C)c2c1CS(=O)(=O)c1ccccc1-2`, the “activity change, negative = inhibition” value is inactive: -1.06%. For `COc1ccccc1NC(=O)CCn1c(=O)oc2cc(Cl)ccc21` the value was inactive: -2.13%; for `COc1ccc(-n2cc(C(=O)NCc3cccc(OC)c3)c3ccccc3c2=O)cc1`, inactive: 3.03%; for `O=C(CSc1nc(=O)n(Cc2ccco2)c2c1CCC2)NCc1ccc(F)cc1`, inactive: -0.579%. Next, `CC1=C(C(=O)Nc2ccccc2C)C(c2ccccn2)n2nc(SCc3ccccc3F)nc2N1` (stereo not given): inactive: -10.2%.

Take `Cc1nc2nc(NC(=O)c3ccc(Cl)cc3)[nH]n2c(=O)c1Cc1ccccc1`: the “activity change, negative = inhibition” value is inactive: -1.11%. For `O=c1[nH]c(SCc2ccc(Br)cc2)nc2c1CCCC2` the value was inactive: -22.8%.

Turning to `Cc1ccc(S(=O)(=O)c2nnn3c2nc(N2CCN(c4ccccc4F)CC2)c2ccccc23)cc1C`, the “activity change, negative = inhibition” value was inactive: 1.01%. Next, `CC(NC(=O)Cn1c(-c2cccs2)cc2cc(F)ccc21)c1ccccc1` (stereo not given): inactive: -25.4%; `O=C(NC1CC(=O)N(c2ccc(Cl)cc2)C1)c1cccs1` (stereo not given): inactive: -11.4%; `C[C@H]1O[C@@H](n2cc(F)c(=O)[nH]c2=O)[C@H](O)[C@H]1O`: inactive: -5.24%. For `O=C(Cn1c(=O)n(Cc2ccc3c(c2)OCO3)c(=O)c2ccc(C(=O)NC3CCCCC3)cc21)Nc1ccccc1F` the value was inactive: -17.8%; for `COc1ccc(-c2cc(C(=O)Oc3ccc(C)c(C)c3)c3ccccc3n2)cc1`, inactive: 8.42%; for `Cc1cccn2c(=O)c3cc(C(=O)NCc4ccccc4Cl)sc3nc12`, inactive: -12.6%.

The values are drawn from PubChem BioAssay AID1508623 (National Center for Advancing Translational Sciences (NCATS), 2021).
